# Reference: PubChem BioAssay AID1347073 (National Center for Advancing Translational Sciences (NCATS), 2019)
# Hit rate of the full screen: of about 45,000 compounds, about 200 (0.44%) were called active. Another 7% or so got no clear call; they are omitted. The call rests on the fitted dose curve; in most records, active means well fitted activation curve with a large enough effect; inconclusive means small, poorly fitted or top-dose-only effect; inactive means no such curve, though single readings can be large or run the other way. The list shows a part of the results.
# Test: qHTS of TDP-43 Inhibitors: NCGC Sytravon Library Screen; further: nearly all actives have a fitted effect of over 55% in size; on growth rescue (activation): 0% is about no effect
# Conditions: yeast TDP-43 toxicity rescue, BacTiter-Glo growth, 24 h; series mostly up to 46.1 µM; growth rescue (activation): at the top concentration
# In short: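 TDP-43-expressing yeast, pregrown in raffinose, seeded at OD600 0.02 in galactose medium with compound for 24 hr at 30 deg C. Growth read by BacTiter-Glo luminescence, so rescue of toxicity appears as activation.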
# Potency means the concentration at half of the fitted maximal effect.
Structure (SMILES),growth rescue (activation),Potency
Cc1cc(NC(=O)CCC(=O)N(Cc2ccccc2)C2(C(=O)NC3CCCCC3)CCCC2)no1,inactive: 0.0972%,–
CN(C(=O)c1nc(-c2ccccc2)n(-c2ccccc2)n1)C1CCS(=O)(=O)C1 (stereo not drawn),inactive: 9.53%,–
COc1cc(CNc2ncn[nH]2)ccc1OCc1ccccc1C,inactive: 0.816%,–
C1CC(CN2CCOCC2)CN(c2nc3nonc3nc2N2CCSCC2)C1 (stereo not drawn),inactive: -5.25%,–
Cc1ccc(NS(=O)(=O)c2ccc(NC(=O)c3cccs3)cc2)c(C)c1,inactive: 23.9%,–
Cc1ccc(C(=O)NC2CCCCC2)cc1S(=O)(=O)N1CCCC1,inactive: 10.5%,–
O=C(O)Cc1c(C(=O)O)[nH]c2ccc(C(=O)O)cc12,inactive: -0.336%,–
Cc1ccc2c(c1)N(Cc1ccccc1)C(=O)C(C)S2 (stereo not drawn),inactive: 16.9%,–
CCCOc1ccc(/C=C/C(=O)Nc2ccc([N+](=O)[O-])cc2)cc1,inactive: 18.2%,–
CN(C)c1ccc(S(=O)(=O)c2ccc(Cl)cc2)cc1,inactive: 6.38%,–
Cc1nn(CCC#N)c2[nH]c(=O)cc(C(F)(F)F)c12,inactive: 12.1%,–
COc1ccc(NC(=O)c2c(C)oc3ccc(O)c(CN4CCCC(C)C4)c23)cc1Cl (stereo not drawn),inactive: 19.5%,–
CCc1nnc(NC(=O)C(c2ccccc2)c2ccccc2)s1,inactive: -6.12%,–
COC(=O)c1ccc(CSc2nc3ccc(S(=O)(=O)N4CCOCC4)cc3[nH]2)cc1,inactive: 11.6%,–
O=C1c2ccccc2C(=O)N1COc1ccc(S(=O)(=O)N2CCOCC2)cc1[N+](=O)[O-],inactive: 3.43%,–
Cc1c([N+](=O)[O-])ccc(S(=O)(=O)N2CCC(C(N)=O)CC2)c1C,inactive: 1.81%,–
CCCC(NC(=O)CCc1c(C)c2cc3c4c(oc3c(C)c2oc1=O)CCCC4)C(=O)O (stereo not drawn),inactive: -8.51%,–
COc1ccc(C(=O)C[n+]2cccc(C)c2)cc1,inactive: 3.07%,–
CCCCN(C(=O)C1CCCO1)c1c(N)n(CCC)c(=O)[nH]c1=O (stereo not drawn),inactive: 27.8%,–
CCC(Oc1ccccc1F)C(=O)NCCCn1ccnc1 (stereo not drawn),inactive: -17.7%,–
CSc1ccc(S(=O)(=O)N2CCC(C(=O)Nc3cccnc3)CC2)cc1,inactive: -32.4%,–
COC(=O)Cc1ccc(NC(=S)N2CCN(C)CC2)cc1,inactive: 4.31%,–
C=CCOc1ccc(C=Nc2cccc(Cl)c2)c(O)c1,inactive: -1.37%,–
CCc1nc2ccc(C(=O)NCCCN3CCN(c4ccccc4F)CC3)cc2nc1CC,inactive: 1.72%,–
O=C(c1cc(-c2ccccc2O)on1)N1CCCCCC1,inactive: 22.9%,–
CS(=O)(=O)c1ccc2nc(NC(=O)c3ccc(N4CCCC4=O)cc3)sc2c1,inactive: 13.6%,–

Structure (SMILES),growth rescue (activation),Potency
Cc1ccc(CC2CC(=O)N(c3nc4ccccc4s3)C2=O)cc1 (stereo not drawn),inactive: 24.8%,–
O=C(c1ccncc1)N1CCN(C2CCC(c3ccccc3)CC2)CC1 (stereo not drawn),inactive: -6.62%,–
OCC1(Cc2ccc(Cl)cc2)CCN(Cc2ccc3nsnc3c2)CC1,inactive: 8.75%,–
Cc1ccccc1NCC(=O)N/N=C\c1ccc2c(c1)OCO2,inactive: -8.82%,–
CCc1ccc(NC(=O)C2CCN(c3nnc(-n4c(C)ccc4C)s3)CC2)cc1,inactive: 8.48%,–
COc1ccc(Oc2ccc(NC(=O)c3ccccc3C)cc2)cc1,inactive: 7.08%,–
CC(Nc1cc(N2CCN(S(=O)(=O)N(C)C)CC2)ccc1[N+](=O)[O-])c1ccccc1 (stereo not drawn),inactive: 13.8%,–
O=C(CSc1nnc(-c2ccc([N+](=O)[O-])cc2)o1)Nc1ccccn1,inactive: -7.54%,–
CCC1CCCCN1CCCNC(=O)c1cn(CC)c2ccc(S(=O)(=O)N3CCc4ccccc4C3)cc2c1=O (stereo not drawn),inactive: 1.23%,–
O=C(N/N=C/c1cccnc1)c1ccco1,inactive: 3.05%,–
CCOC(=O)C1=C(CS(=O)(=O)c2ccc(C)cc2)NC(=O)NC1c1cc(OC)c(OC)c(OC)c1 (stereo not drawn),inactive: 9.64%,–
O=C(NC(=S)NNC(=O)[C@H]1C[C@@H]1c1ccccc1)c1cccc(F)c1,–,active: 12.6 µM
CC1CCN(CCCCOc2ccc(Cl)cc2)CC1,inactive: -1.62%,–
COc1ccc(-c2n[nH]c(=S)n2N)c(OC)c1,inactive: 1.92%,–
CCN1/C(=C\C=C2\C(=O)N(c3ccccc3)C(=S)N2C)Sc2ccccc21,inactive: -26.1%,–
CCC(C)NC(=O)CN1C(=O)NC2(CCOc3ccccc32)C1=O (stereo not drawn),inactive: -5.32%,–
CCCN(CCC)CCCNC(=O)C(NS(=O)(=O)c1ccc2c(c1)CCC(=O)N2)c1ccccc1 (stereo not drawn),inactive: -1.99%,–
O=C(C1CCN(Cc2ccc(Cl)cc2)CC1)N1CCN(C(c2ccccc2)c2ccccc2)CC1,inactive: -1.36%,–
NC(=O)c1ccc2c(c1)OCCO2,inactive: -9.01%,–
OC(CN1CCN(Cc2ccc3c(c2)OCO3)CC1)c1c[nH]c2ccccc12 (stereo not drawn),inactive: 29%,–
O=C(N/N=C/c1cc(Cl)ccc1O)C(=O)Nc1ccccc1OC(F)(F)C(F)F,inactive: 4.06%,–
CCC(Oc1ccccc1)C(=O)Nc1ccccc1C(=O)N1CCCCC1 (stereo not drawn),inactive: 14.5%,–
N#CCCn1cc(C(=O)Nc2ccc(C(=O)O)cc2)c(-c2cc3ccccc3o2)n1,inactive: 1.33%,–
CC(C)=C1C2CCC1C(C(=O)Nc1cc(C)cc(C)c1)C2C(=O)O (stereo not drawn),inactive: 29.4%,–
O=[N+]([O-])c1cc([N+](=O)[O-])c2oc(-c3ccccc3)c(Br)c2c1O,inactive: -85.2%,–
CCOc1ccccc1NC(=O)CSc1nnc(C2CC2)n1CC,inactive: 6.69%,–

Structure (SMILES),growth rescue (activation),Potency
Cc1[nH]c2ccccc2c1C(=O)/C=C/c1ccccc1Cl,inactive: 12.7%,–
Nc1ccc2nc(CCCCCCc3nc4ccc(N)cc4[nH]3)[nH]c2c1,inactive: 8.36%,–
O=C(CCC(=O)Nc1ccccc1Cl)NNC(=O)NC1CCCCC1,inactive: -10.7%,–
CCc1ccc(/C=C(\Cl)c2nc3cc(Cl)ccc3c(=O)[nH]2)cc1,inactive: 16.7%,–
C/C(CC(=O)NC(C)(C)C)=N\NC(N)=S,inactive: 5.39%,–
CCOC(=O)C1=C(c2ccccc2)N=C2SCC(=O)N2C1c1ccc2c(c1)OCO2 (stereo not drawn),inactive: 5.96%,–
COc1ccc(Br)c2c1-c1nc(NC(=O)c3cccc(C)c3)sc1C2,inactive: 4.97%,–
Cc1nonc1C(=O)N1CCCC(N2CCN(c3ccc(F)cc3)CC2)C1 (stereo not drawn),inactive: -1.4%,–
CCN(CC)CCCN(C)C(=O)Cn1nc(Cc2ccncc2)c2ccccc2c1=O,inactive: 0.147%,–
O=C(CN1CCC(NC(=O)Nc2ccc(F)cc2)CC1)Nc1ccccc1[N+](=O)[O-],inactive: -0.226%,–
COc1ccc(-c2cc(CS(=O)(=O)c3ccccc3)on2)cc1,inactive: 20.6%,–
CCN(CC)CCNC(=O)Cn1ncc2ccccc2c1=O,inactive: 3.47%,–
O=C(N/N=C/c1cccc([N+](=O)[O-])c1)c1nc2ccccc2c(=O)[nH]1,inactive: 7.83%,–
CN(C)S(=O)(=O)c1cccc(NC(=S)NC23CC4CC(CC(C4)C2)C3)c1,inactive: 25%,–
O=C(NNC(=O)C1CCN(c2ncccn2)CC1)c1ccc(F)cc1,inactive: 3.65%,–
COc1ccc(CC2(CO)CCN(C(C)Cc3ccc(Cl)cc3)CC2)cc1 (stereo not drawn),inactive: -12.8%,–
Cc1ccc(S(=O)(=O)Nc2nc3ccccc3nc2N2CCOCC2)cc1,inactive: 11.3%,–
COCCNC(=O)C(c1ccc(F)cc1)N(C(=O)CCC(=O)Nc1nccs1)c1ccc(C)cc1 (stereo not drawn),inactive: 0.576%,–
Cc1noc(C)c1COc1ccc(C(=O)NCC(c2c(F)cccc2Cl)N(C)C)cc1 (stereo not drawn),inactive: 13.2%,–
COc1ccc(C(C(=O)NC2CCCCC2)N(Cc2cccnc2)C(=O)c2snc(C(N)=O)c2N)cc1 (stereo not drawn),inactive: -3.22%,–
CCOc1ccc(S(=O)(=O)N(C)c2ccc(OCC(=O)NCC3CCCCC3)cc2)cc1,inactive: 9.74%,–
Cc1ccc(N(NC(=O)C(O)(c2ccccc2)c2ccccc2)C(=O)CCl)cc1,inactive: 16.3%,–
CCOc1ccc(S(=O)(=O)N2CCC(C(=O)NCc3ccncc3)CC2)cc1Cl,inactive: 15.2%,–
CCc1ccccc1-n1nnnc1SCC(=O)Nc1cc(C)on1,inactive: -7.3%,–
COc1ccc(/C=C/C(=O)NC(=S)Nc2cc3oc4ccccc4c3cc2OC)cc1,inactive: 6.07%,–
COc1ccc2nc(C)cc(NCc3ccc(F)cc3)c2c1,inactive: 16.4%,–

Structure (SMILES),growth rescue (activation),Potency
Cc1cc(=O)[nH]c(/N=C(\N)Nc2ccc(SC(F)F)cc2)n1,inactive: 12.8%,–
Cn1c(SCC(=O)NC(=O)NCc2ccccc2)nnc1C(F)(F)F,inactive: 3.57%,–
COc1ccc(OC)c(/C=N/NC(=O)C(=O)N2CCCC2)c1,inactive: -13.4%,–
COc1ccc(N(C(=O)C2COc3ccccc3O2)C(C(=O)NC2CCCCC2)c2ccccc2)cc1OC (stereo not drawn),inactive: 14.6%,–
COc1ccc(/C=C2\SC(=S)N(CCC(=O)Nc3ccccc3C(=O)O)C2=O)cc1,inactive: -2.71%,–
O=C1Nc2ccc(S(=O)(=O)NCCC3=CCCCC3)c3cccc1c23,inactive: 7.05%,–
Cc1ccc(CNC(=O)C(OC(=O)c2cccs2)C(C)C)cc1 (stereo not drawn),inactive: -5.78%,–
CCN(CC)c1ccc2c(C)c(Cl)c(=O)oc2c1,inactive: 25.7%,–
O=C(Nc1ccc2c(c1)CCO2)Nc1nnc([C@H]2C[C@H](O)[C@@H](CO)O2)s1,inactive: -7.44%,–
CCCCCn1c(=O)[nH]c2cc(C(=O)N3CCN(c4ccc(C(C)=O)cc4)CC3)ccc2c1=O,inactive: 7.05%,–
Cc1ccc(N(C(=O)c2snc(C(N)=O)c2N)C(C(=O)NCC2CCCO2)c2ccc3ncccc3c2)cc1 (stereo not drawn),inactive: 4.05%,–
O=C(NCCC1=CCCCC1)C1CCC(CNc2c(N3CCCCC3)c(=O)c2=O)CC1 (stereo not drawn),inactive: 23.3%,–
O=C(N/N=C/c1cccc(Br)c1)C1CC(=O)N(c2ccccc2)C1 (stereo not drawn),inactive: 16.4%,–
COc1ccc(NC(=O)/C=C/c2ccc(OC(F)F)cc2)cn1,inactive: 7.14%,–
Oc1c(C(Nc2nccs2)c2ccc(C(F)(F)F)cc2)ccc2cccnc12 (stereo not drawn),inactive: -70.3%,–
CN(Cc1nc(-c2ccccc2)no1)C(=O)c1ccc2c(c1)OCO2,inactive: -6.92%,–
O=C(NCCc1ccc2c(c1)OCCO2)c1cc(S(=O)(=O)N2CCCC2)ccc1Cl,inactive: 16.8%,–
CC(C)C[C@@H](NC(=O)C1CCC(CNC(=O)[C@@H]2CCCN2C(=O)OC(C)(C)C)CC1)C(=O)O (stereo partly drawn),inactive: -21.1%,–
O=C(N/N=C/c1ccc(Cl)cc1Cl)c1cccc(N2CCCC2=O)c1,inactive: 2.22%,–
C=C1CCC[C@]2(C)C[C@H]3OC(=O)C(CN(C)CC(OC)OC)[C@H]3CC12 (stereo partly drawn),inactive: -4.4%,–
CCc1nc2c(OCc3ccc(Cl)cc3)cccn2c1N(C=O)Cc1ccc(OC)cc1,inactive: -6.34%,–
CCOc1cc(CNCC2CCCN2CC)cc(Cl)c1OC (stereo not drawn),inactive: 7.68%,–
CC(=O)NC12CC3CC(C1)CC(C(=O)NCc1ccc(C)cc1)(C3)C2,inactive: -32.1%,–
COCCNC(=O)CN(Cc1ccco1)C(=O)CCC(=O)Nc1nccs1,inactive: 2.54%,–
COc1ccc(/C=N/NC(=O)CN2CCSCC2)c(OC)c1,inactive: 5.33%,–
